{"source": "ChEMBL document CHEMBL4888484", "about": "“Replenishing the malaria drug discovery pipeline: Screening and hit evaluation of the MMV Hit Generation Library 1 (HGL1) against asexual blood stage Plasmodium falciparum ,using a nano luciferase reporter read-out” (2022)", "note": "About 540 (0.36%) of roughly 150,000 compounds showed an effect of 50% or more. The list shows a part of the results."}
{"system": "Plasmodium falciparum", "assay": "Primary screen in NF54 nanoGlo assay, in single point, at 2uM, 72h; a lower Z score goes with more inhibition", "type": "functional, Erythrocyte", "settings": "timepoint 72 hour", "units": {"% Inhibition": "%"}}
{"smiles": "CC(=O)Nc1ccc(C(=O)O[C@@H](C)C(N)=O)cc1", "% Inhibition": -8, "Z score": 1.17}
{"smiles": "COCCn1cc(C(=O)Nc2ccc3ncn(C(C)C)c(=O)c3c2)c2ccccc2c1=O", "% Inhibition": -1, "Z score": 0.15}
{"smiles": "COc1cc2ccccc2cc1C(=O)Nc1cc(C)nn1C", "% Inhibition": 1, "Z score": -0.16}
{"smiles": "N=C(NOS(=O)(=O)c1ccc2ccccc2c1)c1cccnc1", "% Inhibition": -10, "Z score": 1.42}
{"smiles": "COc1ccc(CC(=O)N2CCC(Oc3ccc(Cl)cn3)CC2)cc1OC", "% Inhibition": -10, "Z score": 1.51}
{"smiles": "COCCc1nc(CCn2nc(C)cc2C)n(CC(F)(F)F)n1", "% Inhibition": 2, "Z score": -0.36}
{"smiles": "Cc1cccc2c1nc1n2[C@@H](CNC2CCC2)COC1", "% Inhibition": 32, "Z score": -3.69}
{"smiles": "CC1CCN(S(=O)(=O)NC(C)C2CC3CCC2C3)CC1", "note": "(stereo not given)", "% Inhibition": -3, "Z score": 0.66}
{"smiles": "Cc1ccncc1C(=O)N1CCC(Cc2ccc(CN3CCCC3)cc2)CC1", "% Inhibition": -10, "Z score": 2.01}
{"smiles": "CCn1nccc1C(=O)Nc1nn(CC(F)(F)F)c2cc(OC(C)C)ccc12", "% Inhibition": -9, "Z score": 1.18}
{"smiles": "COC[C@H]1C[C@@H](NC(=O)C2CCCC2)[C@H](O)[C@@H]1O", "% Inhibition": 30, "Z score": -3.41}
{"smiles": "Cc1ccc(C(=O)N(C)[C@@H](C)C2CC2)s1", "% Inhibition": -11, "Z score": 1.25}
{"smiles": "CCC(C)N(C(=O)CC1CC1)C(C)CC", "note": "(stereo not given)", "% Inhibition": -16, "Z score": 1.75}
{"smiles": "CC(C)[C@@H]1CCCCN1C(=O)Nc1cnn(-c2ccccn2)c1", "% Inhibition": -12, "Z score": 1.1}
{"smiles": "Cc1nnsc1C(=O)NCc1cc(-c2ccncc2)n(C2CCCC2)n1", "% Inhibition": 9, "Z score": -1.05}
{"smiles": "CC[C@@H](C(=O)NCC1(COC)CC1)n1cccn1", "% Inhibition": -6, "Z score": 0.64}
{"smiles": "Cc1cccc2nnc(-c3cnc(C(C)C)nc3)n12", "% Inhibition": -8, "Z score": 1.13}
{"smiles": "Cn1cc(CNC(=O)c2[nH]nc3c2CCCC3)c(NC(=O)c2[nH]nc3c2CCCC3)n1", "% Inhibition": -8, "Z score": 0.77}
{"smiles": "COC(=O)CC1CN(C(C)Cc2ccc3ccccc3n2)CCO1", "note": "(stereo not given)", "% Inhibition": -4, "Z score": 0.8}
{"smiles": "Cc1ccc(CN2CCCn3nc(C(=O)NCC(=O)N4CCN(C)CC4)cc3C2=O)cc1", "% Inhibition": -13, "Z score": 2.27}
{"smiles": "CCn1ncc(Br)c1C(=O)N[C@@H](C)c1ncc(C)s1", "% Inhibition": -17, "Z score": 2.75}
{"smiles": "Cc1nc(C)c(CC(=O)Nc2ccc(C(N)=O)cc2)c(=O)[nH]1", "% Inhibition": -36, "Z score": 4.24}
{"smiles": "COc1ccc(C[n+]2cccc(C(=O)Nc3c(C)cccc3C)c2)cc1OC", "% Inhibition": -8, "Z score": 1.25}
{"smiles": "CCn1ncc(NC(=O)c2cc(-c3ccccc3)on2)c1C", "% Inhibition": 34, "Z score": -4.59}
{"smiles": "CCc1noc(C)c1CNCc1ccnn1-c1ccccc1OC", "% Inhibition": 0, "Z score": 0.04}
{"smiles": "CCc1noc(NC(C)=O)c1-c1ccc(C)c(S(=O)(=O)N[C@@H](C)CC)c1", "% Inhibition": -4, "Z score": 0.59}
{"smiles": "CC(=O)Nc1nc2ccc(NC(=O)NCc3ccc(C)cc3)cc2s1", "% Inhibition": -7, "Z score": 1.09}
{"smiles": "Clc1cccc2c1OCCN2Cc1cncnc1", "% Inhibition": -6, "Z score": 0.66}
{"smiles": "O=C(C1=CCCC1)N1CCC[C@@]2(C1)OCc1ccccc12", "% Inhibition": 1, "Z score": -0.12}
{"smiles": "Cc1cc(O)cc(=O)n1CCc1ccccc1", "% Inhibition": -8, "Z score": 1.18}
{"smiles": "O=S(=O)(Cc1ccccc1)NCCN1CCCCC1", "% Inhibition": -15, "Z score": 1.57}
{"smiles": "O=S(=O)(c1ccc(F)cc1)N1CCCO1", "% Inhibition": -7, "Z score": 1.29}
{"smiles": "O=C([C@@H]1CCCc2[nH]nnc21)N1CC(N2CCCC2=O)C1", "% Inhibition": 13, "Z score": -1.77}
{"smiles": "CCN1CCC(Nc2ncnc3c2cnn3-c2ccccc2)CC1", "% Inhibition": 2, "Z score": -0.24}
{"smiles": "Cc1cc(O[C@H]2CCN(C(=O)Cc3cccs3)C2)nc(C)n1", "% Inhibition": -7, "Z score": 1.06}
{"smiles": "CC(NC(=O)C1CCCN(C(=O)c2cccs2)C1)c1cccnc1", "note": "(stereo not given)", "% Inhibition": -13, "Z score": 1.36}
{"smiles": "C[C@@H](c1nnnn1-c1ccccc1)N1CCC(Cn2ccnn2)CC1", "% Inhibition": -13, "Z score": 1.26}
{"smiles": "COc1cc(F)c(C(C)NC(=O)N2CC(C)OCC2C)cc1OC", "note": "(stereo not given)", "% Inhibition": -1, "Z score": 0.09}
{"smiles": "CC(NC(=O)C1CCc2nn(C)c(=O)cc2C1)c1ccc(F)cc1", "note": "(stereo not given)", "% Inhibition": -10, "Z score": 1.24}
{"smiles": "CC(=O)NC1(C(=O)Nc2ccc(F)c(N3CCCC3=O)c2)CCCC1", "% Inhibition": -13, "Z score": 2.66}
{"smiles": "CC(C)n1ccc(CN2CCC[C@H](c3cc(C(F)(F)F)[nH]n3)C2)n1", "% Inhibition": 29, "Z score": -0.07}
{"smiles": "CC[C@H]1CN(C(=O)N2CCC(C(=O)NCCN3CCOCC3)CC2)c2cc(C)ccc2O1", "% Inhibition": -4, "Z score": 0.77}
{"smiles": "O=C(c1[nH]nc2c1CCc1ccccc1-2)N1CCN(Cc2ccc3c(c2)OCO3)CC1", "% Inhibition": 4, "Z score": -0.36}
{"smiles": "Cc1cc(C)cc(C2=CCN(C(=O)CN3C(=O)NC4(CCCC4)C3=O)CC2)c1", "% Inhibition": 12, "Z score": -1.65}
{"smiles": "Cc1ccc(-c2nccn2Cc2ccc(CN)cc2)cc1F", "% Inhibition": -15, "Z score": 1.52}
{"smiles": "O=C(NC1(CN2CCOCC2)CCCC1)c1ccnc(-n2cnnc2)c1", "% Inhibition": -8, "Z score": 1.35}
{"smiles": "COc1ccc(Br)cc1CC(=O)N(C)C1CCN(c2cc(C)nc(C)n2)CC1", "% Inhibition": -5, "Z score": 0.74}
{"smiles": "COc1cccc(C2C(C(=O)NCc3ccc(F)cc3)c3ccccc3C(=O)N2C2CC2)c1", "note": "(stereo not given)", "% Inhibition": -11, "Z score": 1.89}
{"smiles": "Cc1ccc(Cl)cc1NC(=O)C(C(=O)Nc1cc(Cl)ccc1C)c1ccccc1", "% Inhibition": -8, "Z score": 1.06}
{"smiles": "CC1(C)C(NC(=O)Cc2cccc(C(=O)O)c2)C2CCCOC21", "note": "(stereo not given)", "% Inhibition": 0, "Z score": -0.02}
{"smiles": "CN(C(=O)CC1CCCC1)c1cnn(C)c1", "% Inhibition": -10, "Z score": 1}
{"smiles": "O=S(=O)(c1ccccc1)N1CCC2(CC1)C[C@@H](CCOCC1CC1)CCO2", "% Inhibition": -2, "Z score": 0.46}
{"smiles": "CNC(=O)[C@@H]1CCCN1C(=O)Nc1ccc2c(ccn2CC(C)C)c1", "% Inhibition": 27, "Z score": -3.03}
{"smiles": "CC(C)CCN1C[C@@H](O)CNS(=O)(=O)c2ccc(-c3ccccc3F)cc2OC[C@@]2(C[C@@H](O)[C@@H](O)C2)C1", "% Inhibition": -25, "Z score": 4.04}
{"smiles": "c1cncc(-c2n[nH]cc2CNCCc2cccc3cccnc23)c1", "% Inhibition": -2, "Z score": 0.34}
{"smiles": "Cc1cnc(CN2C[C@]3(CCCN(C(=O)c4ccc[nH]4)C3)CCC2=O)cn1", "% Inhibition": -18, "Z score": 2.52}
{"smiles": "CCc1cc(C(=O)N2CCc3c(cc(-c4ccccc4Cl)c(=O)n3Cc3ccncc3)C2)no1", "% Inhibition": -12, "Z score": 1.53}
{"smiles": "NC(=O)c1ccnc(NC[C@H]2CCCC[C@@H]2O)c1Br", "% Inhibition": 4, "Z score": -0.54}
{"smiles": "COc1cc(CNC[C@]2(O)CCc3ccccc32)ccc1OC(C)C", "% Inhibition": -1, "Z score": 0.08}
{"smiles": "CNc1nc2c(c(C(=O)N3CCCC3)n1)CN(C(=O)CCOC)CC2", "% Inhibition": 3, "Z score": -0.5}
{"smiles": "CCN(CC(C)C#N)C(=O)CNC(CCO)C1CCCCC1", "note": "(stereo not given)", "% Inhibition": -14, "Z score": 1.94}
{"smiles": "CC(C)c1noc(NCCCn2ccnc2)n1", "% Inhibition": -8, "Z score": 0.72}
{"smiles": "COc1ccc(-c2cc3n(n2)C[C@@](C)(C(=O)NCc2ccccc2OC)N(c2ccc(C)cc2)C3=O)cc1", "% Inhibition": -4, "Z score": 0.55}
{"smiles": "Cc1cc(C)n(C[C@H](C)N2CCN(CCc3ccccc3)CC2)n1", "% Inhibition": -1, "Z score": 0.2}
{"smiles": "c1cn(-c2ccc(-c3noc(-c4ccoc4)n3)cn2)cn1", "% Inhibition": -6, "Z score": 0.61}
{"smiles": "CS(=O)(=O)CCCN1CCC(C2CCOCC2)CC1", "% Inhibition": 11, "Z score": -1.31}
{"smiles": "C[C@](O)(CNS(=O)(=O)C1CC1)c1cc2ccccc2o1", "% Inhibition": -15, "Z score": 1.95}
{"smiles": "O=C(N[C@H]1CCS(=O)(=O)C1)c1cc(C2CC2)nc2ccccc12", "% Inhibition": -9, "Z score": 1.22}
{"smiles": "Cc1c(C(=O)N[C@H]2CCCc3ccccc32)sc2ncnc(N(C)C3CCCCC3)c12", "% Inhibition": -13, "Z score": 1.18}
{"smiles": "O=S(=O)(c1ccc2c(c1)OCCO2)N1CN(C2CCCC2)c2nc3ccccc3nc21", "% Inhibition": -12, "Z score": 1.81}
{"smiles": "CN1C(=O)CN(C(=O)NC(c2nccn2C)c2nccn2C)Cc2ccccc21", "% Inhibition": -9, "Z score": 1.61}
{"smiles": "O=C1CN(S(=O)(=O)c2cccc(Cl)c2)C[C@H]2c3ccccc3CCN12", "% Inhibition": 8, "Z score": -1.03}
{"smiles": "O=C(O)[C@@H](c1cccnc1)N1CCc2ccc(Cl)c(Cl)c2C1", "% Inhibition": 2, "Z score": -0.41}
{"smiles": "CCN1CCn2cc(C(=O)NC3CCCCCC3)nc2C1=O", "% Inhibition": -7, "Z score": 0.97}
{"smiles": "CN(Cc1c(F)cccc1Cl)Cn1nc(-c2ccco2)oc1=S", "% Inhibition": -6, "Z score": 1.05}
{"smiles": "C[C@@]1(C(=O)N2CCN(c3ccccn3)CC2)CCCCC(=O)N1", "% Inhibition": -8, "Z score": 0.87}
{"smiles": "O=C(Nc1cnccn1)c1cc(F)c(Cl)cc1F", "% Inhibition": -8, "Z score": 1.22}
{"smiles": "COCCN1C[C@]2(CCCN(C(=O)c3ccc[nH]3)C2)CCC1=O", "% Inhibition": -10, "Z score": 1.39}
{"smiles": "O=C(c1cccnc1NCc1cscn1)N1CCc2ccccc21", "% Inhibition": -8, "Z score": 1.38}
{"smiles": "CCCCNc1nc(-c2cn(C)nc2C)cc(C(F)F)n1", "% Inhibition": -33, "Z score": 3.91}
{"smiles": "Cc1ccc(CN(C)CCc2cnn(C)c2)s1", "% Inhibition": -6, "Z score": 0.82}
{"smiles": "O=C1CC[C@H](c2noc(-c3ccc(OC(F)F)nc3)n2)CN1", "% Inhibition": -8, "Z score": 0.96}
{"smiles": "CN(C)c1cncc(-c2nc(-c3cnn(CCF)c3)no2)c1", "% Inhibition": 4, "Z score": -0.49}
{"smiles": "O=C(c1ccnc2cc(Cl)ccc12)N1CCC(O)(C(F)F)CC1", "% Inhibition": -9, "Z score": 1.07}
{"smiles": "COCCN(CC(=O)N(Cc1cccn1Cc1ccc(Br)cc1)C1CCCCC1)C(=O)N(C)C", "% Inhibition": 1, "Z score": -0.21}
